Measured values from the RNAGym collection of RNA variant scans (doi:10.1101/gad.245936.114).
Variants at the background level are over-represented here.

B1: tRNA (parent)
chain: CUCUCGGUAGCCAAGUUGGUUUAAGGCGCAAGACUUUAAUUUAUCACUACGAAAUCUUGAGAUCGGGCGUUCGACUCGCCCCCGGGAGAUUUUUUCCUCGAGCAA

Variants of: B1
Test: nonsense suppression (GFP-seq) (ratio to wild type); higher = more function; SUP4oc tRNA, yeast GFP reporter sort-seq
Method in brief: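 Nonsense suppression (GFPSEQ) is the median GFP/RFP ratio of each sorting bin, weighted by the variant's estimated share of cells in that bin and expressed relative to the unmutated parent tRNA. Yeast strains carried genome-integrated variants of an ochre-suppressor tRNA from a library with ~3% random mutations, plus a galactose-driven GFP ochre reporter and RFP, and were grown in raffinose/galactose medium containing 80 mg/L adenine. Cells were sorted into GFP/RFP bins, each bin was Illumina-sequenced (phred ≥30), and variants were kept only with ≥100 reads and ≥30 cells.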

With U8A U55G C81G as the variant, how does the nonsense suppression read?
The nonsense suppression was ≤ 0.026.

With U8A U58C A74G as the variant, how does the nonsense suppression read?
Its nonsense suppression is ≤ 0.026.

For U8A U70A, which nonsense suppression is on record?
The nonsense suppression was ≤ 0.026.

With U8A U71A G86U as the variant, how does the nonsense suppression read?
Its nonsense suppression is ≤ 0.026.

With U8C A9C A60G G69C U76C A89C as the variant, how does the nonsense suppression read?
The nonsense suppression was ≤ 0.026.

With U8C A9U A14G G85U as the variant, how does the nonsense suppression read?
The nonsense suppression was ≤ 0.026.

With U8C A9U U35A as the variant, how does the nonsense suppression read?
The nonsense suppression was ≤ 0.026.

Which nonsense suppression does the source give for U8C A13G G85U here?
The nonsense suppression was ≤ 0.026.

With U8C A13U C27G as the variant, how does the nonsense suppression read?
Its nonsense suppression is ≤ 0.026.

Which nonsense suppression does the source give for U8C A14U A60C here?
The nonsense suppression was ≤ 0.026.

For U8C A14U C75U, which nonsense suppression is on record?
The nonsense suppression was ≤ 0.026.

With U8C A23U as the variant, how does the nonsense suppression read?
The nonsense suppression was ≤ 0.026.

With U8C A23U U58G G85C as the variant, how does the nonsense suppression read?
The nonsense suppression was ≤ 0.026.

Which nonsense suppression does the source give for U8C A24G G61C U76G C80U here?
Its nonsense suppression is ≤ 0.026.

With U8C A31G G67A as the variant, how does the nonsense suppression read?
Its nonsense suppression is ≤ 0.026.

With U8C A31U C34U G61A C79U as the variant, how does the nonsense suppression read?
Its nonsense suppression is ≤ 0.026.

For U8C A33U U57G G59U G66U U76A G86C, which nonsense suppression is on record?
Its nonsense suppression is ≤ 0.026.

With U8C A54U as the variant, how does the nonsense suppression read?
Its nonsense suppression is ≤ 0.026.

With U8C A60C A87G as the variant, how does the nonsense suppression read?
Its nonsense suppression is ≤ 0.026.

For U8C A60U, which nonsense suppression is on record?
The nonsense suppression was ≤ 0.026.

With U8C A60U C82G G88U as the variant, how does the nonsense suppression read?
Its nonsense suppression is ≤ 0.026.

Which nonsense suppression does the source give for U8C A62C C75A here?
The nonsense suppression was ≤ 0.026.

With U8C A87U as the variant, how does the nonsense suppression read?
Its nonsense suppression is ≤ 0.026.

With U8C C11A C56U as the variant, how does the nonsense suppression read?
The nonsense suppression was ≤ 0.026.

Which nonsense suppression does the source give for U8C C11A U17G here?
Its nonsense suppression is ≤ 0.026.

With U8C C11A U55A as the variant, how does the nonsense suppression read?
The nonsense suppression was ≤ 0.026.

Which nonsense suppression does the source give for U8C C11G here?
The nonsense suppression was ≤ 0.026.

Which nonsense suppression does the source give for U8C C11G A23U G69C here?
Its nonsense suppression is ≤ 0.026.

With U8C C11G G59A as the variant, how does the nonsense suppression read?
Its nonsense suppression is ≤ 0.026.

With U8C C11G U35A as the variant, how does the nonsense suppression read?
The nonsense suppression was ≤ 0.026.

Which nonsense suppression does the source give for U8C C12A C68A C72U here?
Its nonsense suppression is ≤ 0.026.

Which nonsense suppression does the source give for U8C C12U U63C G78A here?
The nonsense suppression was ≤ 0.026.

For U8C C27A C29G, which nonsense suppression is on record?
Its nonsense suppression is ≤ 0.026.

Which nonsense suppression does the source give for U8C C27G C29G G88U here?
Its nonsense suppression is ≤ 0.026.

For U8C C27G C68G, which nonsense suppression is on record?
Its nonsense suppression is ≤ 0.026.

Which nonsense suppression does the source give for U8C C34G here?
The nonsense suppression was ≤ 0.026.

For U8C C64A, which nonsense suppression is on record?
The nonsense suppression was ≤ 0.026.

For U8C C64G, which nonsense suppression is on record?
Its nonsense suppression is ≤ 0.026.

Which nonsense suppression does the source give for U8C C64U here?
Its nonsense suppression is ≤ 0.026.

For U8C C68A, which nonsense suppression is on record?
The nonsense suppression was ≤ 0.026.

For U8C C72G, which nonsense suppression is on record?
The nonsense suppression was ≤ 0.026.

For U8C C77A, which nonsense suppression is on record?
Its nonsense suppression is ≤ 0.026.

For U8C C82U, which nonsense suppression is on record?
Its nonsense suppression is ≤ 0.026.

For U8C G10A, which nonsense suppression is on record?
The nonsense suppression was ≤ 0.026.

Which nonsense suppression does the source give for U8C G10A U58A here?
Its nonsense suppression is ≤ 0.026.

Which nonsense suppression does the source give for U8C G10C C64U G65A here?
The nonsense suppression was ≤ 0.026.

For U8C G10C G18U C27A G67A, which nonsense suppression is on record?
Its nonsense suppression is ≤ 0.026.

Which nonsense suppression does the source give for U8C G10U A13G G59A G67U A89G here?
The nonsense suppression was ≤ 0.026.

For U8C G10U A14C U17G A74G, which nonsense suppression is on record?
Its nonsense suppression is ≤ 0.026.

With U8C G15A C80U G86U as the variant, how does the nonsense suppression read?
The nonsense suppression was ≤ 0.026.

Which nonsense suppression does the source give for U8C G15A U21A G25A here?
Its nonsense suppression is ≤ 0.026.

With U8C G18A as the variant, how does the nonsense suppression read?
The nonsense suppression was ≤ 0.026.

With U8C G18U G25A C68A as the variant, how does the nonsense suppression read?
Its nonsense suppression is ≤ 0.026.

For U8C G18U U22A U35G U71A C80G, which nonsense suppression is on record?
Its nonsense suppression is ≤ 0.026.

With U8C G25C G28U as the variant, how does the nonsense suppression read?
Its nonsense suppression is ≤ 0.026.

With U8C G25U as the variant, how does the nonsense suppression read?
Its nonsense suppression is ≤ 0.026.

Which nonsense suppression does the source give for U8C G25U A60U here?
The nonsense suppression was ≤ 0.026.

For U8C G26A, which nonsense suppression is on record?
Its nonsense suppression is ≤ 0.026.

For U8C G26U G84C, which nonsense suppression is on record?
Its nonsense suppression is ≤ 0.026.

Which nonsense suppression does the source give for U8C G28C C34U C56A U63C here?
Its nonsense suppression is ≤ 0.026.

With U8C G28C U58C as the variant, how does the nonsense suppression read?
The nonsense suppression was ≤ 0.026.

With U8C G32U U58G A89C as the variant, how does the nonsense suppression read?
The nonsense suppression was ≤ 0.026.

Which nonsense suppression does the source give for U8C G61A U70G here?
The nonsense suppression was ≤ 0.026.

For U8C G65A C72G, which nonsense suppression is on record?
Its nonsense suppression is ≤ 0.026.

Which nonsense suppression does the source give for U8C G67A here?
Its nonsense suppression is ≤ 0.026.

For U8C G69A, which nonsense suppression is on record?
Its nonsense suppression is ≤ 0.026.

For U8C G69A G85U, which nonsense suppression is on record?
Its nonsense suppression is ≤ 0.026.

Which nonsense suppression does the source give for U8C G69U here?
Its nonsense suppression is ≤ 0.026.

With U8C G73A C81U as the variant, how does the nonsense suppression read?
Its nonsense suppression is ≤ 0.026.

For U8C G78U C81A A87C, which nonsense suppression is on record?
The nonsense suppression was ≤ 0.026.

With U8C U17A U57A U76G C81A as the variant, how does the nonsense suppression read?
Its nonsense suppression is ≤ 0.026.

For U8C U17G A60C, which nonsense suppression is on record?
The nonsense suppression was ≤ 0.026.

With U8C U17G G26C U55G G61A G84C as the variant, how does the nonsense suppression read?
Its nonsense suppression is ≤ 0.026.

With U8C U20A C29G U76A as the variant, how does the nonsense suppression read?
The nonsense suppression was ≤ 0.026.

With U8C U20C G28A G32A as the variant, how does the nonsense suppression read?
Its nonsense suppression is ≤ 0.026.

For U8C U20C G69A, which nonsense suppression is on record?
The nonsense suppression was ≤ 0.026.

Which nonsense suppression does the source give for U8C U21A G59U here?
Its nonsense suppression is ≤ 0.026.

With U8C U21A U57A as the variant, how does the nonsense suppression read?
The nonsense suppression was ≤ 0.026.

For U8C U21G, which nonsense suppression is on record?
Its nonsense suppression is 0.0903.

For U8C U22A, which nonsense suppression is on record?
The nonsense suppression was ≤ 0.026.

Which nonsense suppression does the source give for U8C U55A here?
Its nonsense suppression is ≤ 0.026.

Which nonsense suppression does the source give for U8C U55A C80A G84A here?
Its nonsense suppression is ≤ 0.026.

For U8C U57G C75G G88A, which nonsense suppression is on record?
The nonsense suppression was ≤ 0.026.

For U8C U58A G66C, which nonsense suppression is on record?
The nonsense suppression was ≤ 0.026.
